Test results from the antibiotic and cytotoxicity screens of Wong et al. (2023).
Some of the results follow.

Columns and labels:
HSkMC = human skeletal muscle cells; assay: cytotoxicity call (relative viability < 0.9); details: 10 µM
HepG2 = assay: cytotoxicity call (relative viability < 0.9); details: 10 µM
S. aureus RN4220 = assay: growth inhibition call (relative growth <= 0.2); details: 50 µM

COc1ccc2c3c(n(c2c1)C)[C@H](CO)N(C[C@]13CN(C1)S(=O)(=O)c1ccc(cc1)C)S(=O)(=O)c1ccc(cc1)C
inactive: cytotoxicity call (HSkMC) | cytotoxicity call (HepG2) | growth inhibition call (S. aureus RN4220)

O=C(NN1C(=O)CSC1=S)c1ccco1
inactive: cytotoxicity call (HSkMC) | cytotoxicity call (HepG2) | growth inhibition call (S. aureus RN4220)

NNC(=O)C1=NO[C@H]2COC3(CCN(c4ncccn4)CC3)OC[C@@H]12
inactive: cytotoxicity call (HSkMC) | cytotoxicity call (HepG2) | growth inhibition call (S. aureus RN4220)

C[C@@H]1CN([C@@H](C)CO)C(=O)c2cccc(NS(=O)(=O)c3cccs3)c2O[C@@H]1CN(C)S(=O)(=O)c1ccc(F)cc1
inactive: cytotoxicity call (HSkMC) | cytotoxicity call (HepG2) | growth inhibition call (S. aureus RN4220)

COc1ccc(NC(=O)N(C)C[C@@H]2OCCCC[C@@H](C)Oc3ccc(NC(=O)Cc4ccccc4)cc3C(=O)N([C@@H](C)CO)C[C@H]2C)cc1
inactive: cytotoxicity call (HSkMC) | cytotoxicity call (HepG2) | growth inhibition call (S. aureus RN4220)

C[C@@H]1CN([C@@H](C)CO)C(=O)Cc2cc(NC(=O)C3CCCCC3)ccc2O[C@@H]1CN(C)C(=O)Nc1cccc2ccccc12
inactive: cytotoxicity call (HSkMC) | cytotoxicity call (HepG2) | growth inhibition call (S. aureus RN4220)
